Measured values from PubChem BioAssay AID1346378 (National Center for Advancing Translational Sciences (NCATS), 2018).
Where “and” joins values, the source holds several entries; their conditions need not be identical. Equal values may be shown once. Screen size: about 420,000 compounds; about 540 (0.13%) were called active. This list was built around the results that the source calls inconclusive (neither active nor inactive); the mix of calls is not that of the screen. Rule as the data show it: active = activity change below about -50%; inconclusive = mostly about -30% to -49%; inactive = weaker than that.

Target: Phosphatidylinositol 4-kinase type 2-alpha (Homo sapiens) (UniProt Q9BTU6)
Chain of UniProt Q9BTU6 (Q9BTU6 whole entry, looked up): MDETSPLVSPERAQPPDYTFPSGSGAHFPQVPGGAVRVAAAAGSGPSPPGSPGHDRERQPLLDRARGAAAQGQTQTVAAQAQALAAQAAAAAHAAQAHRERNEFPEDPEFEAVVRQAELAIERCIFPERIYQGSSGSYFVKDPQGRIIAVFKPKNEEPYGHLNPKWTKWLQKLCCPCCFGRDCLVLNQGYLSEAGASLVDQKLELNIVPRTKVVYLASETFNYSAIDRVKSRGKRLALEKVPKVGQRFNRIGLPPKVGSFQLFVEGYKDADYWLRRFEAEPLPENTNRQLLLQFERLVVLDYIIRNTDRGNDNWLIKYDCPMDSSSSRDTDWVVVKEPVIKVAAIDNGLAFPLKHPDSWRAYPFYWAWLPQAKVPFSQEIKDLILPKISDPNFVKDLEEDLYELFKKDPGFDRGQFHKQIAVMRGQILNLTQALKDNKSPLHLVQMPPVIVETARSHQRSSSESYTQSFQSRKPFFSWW
Test: qHTS for small molecular inhibitors of PI4K2A;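 also: -100% = wells without enzyme as full effect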
Conditions: purified PI4K2A, ADP-Glo luminescence, 1 h; at 76.9 µM, stronger effect = lower value
Outline: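 In this quantitative HTS, ADP production by PI4K2A was quantified luminescently after 1 h at ambient temperature; 100 microM adenosine served as plate-quality control.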

Row | SMILES | activity change, negative = inhibition
1 | c1ccc(-c2noc(-c3ccc4ccccc4c3)n2)nc1 | inconclusive: -45.5%
2 | Cc1ccccc1NC(=O)CSc1nnc(-c2ccco2)c(-c2ccco2)n1 | inconclusive: -47.5%
3 | O=C(N/N=C/c1ccc(Cl)c([N+](=O)[O-])c1)C1CC1 | inactive: -2.11%
4 | COc1ccc(N/C=C2\CCc3ccccc3C2=O)cc1 | active: -66%
5 | CN(CC(=O)Nc1ccccc1Cl)C(=O)COC(=O)c1nc(Cl)c(Cl)c(Cl)c1Cl | inactive: -9.66%
6 | Cc1ccc(C(=O)O/N=C(\N)c2ccccn2)cc1C | inconclusive: -44.5%
7 | CCOc1ccc(/C=C/c2nc3ccccc3n2S(=O)(=O)c2cccc(Cl)c2)cc1 | active: -70.1%
8 | O=C(NC1CCCC1)C(c1ccc(Cl)cc1)N1CCOCC1 (stereo not given) | inactive: 3.61%
9 | Cc1ccc(NC(=S)NCc2ccccn2)cc1 | inconclusive: -42.1%
10 | CC(=O)C(C(C)=O)C1(O)C(=O)c2ccccc2C1=O | inconclusive: -38.4%
11 | CCSc1nnc(NC(=O)c2nc(S(=O)(=O)Cc3ccc(F)cc3)ncc2Cl)s1 | inactive: -25.6%
12 | Nc1ccc(N2CCOCC2)c2nonc12 | active: -59.8%
13 | CCOC(=O)C[n+]1c(C)sc2ccc(OC)cc21 | inconclusive: -46.9%
14 | O=C(OCC(=O)N1CCN(C(=O)c2ccco2)CC1)c1cc(-c2ccco2)nc2ccccc12 | inconclusive: -46.3%
15 | CC(=O)N1c2ccc(S(=O)(=O)N3CCCC(C(=O)N4CCC(C)CC4)C3)cc2CC1C (stereo not given) | inactive: 0.544%
16 | Cc1cc2c(NC(=O)Nc3ccc(C(F)(F)F)cc3)cccc2nn1 | inconclusive: -37.2%
17 | Cc1nn(-c2ccccc2)c(Cl)c1/C=N/NC(=O)c1[nH]ncc1Br | inconclusive: -33.7%
18 | O=C(N/N=C/c1ccco1)c1ccn[nH]1 | active: -76%
19 | CCOC(=O)c1cccc(NS(=O)(=O)c2ccc3[nH]c4c(c3c2)CCCC4)c1 | inactive: -1.1%
20 | CCCc1nc2oc3cc(OC)ccc3c(=O)c2c(=O)n1Cc1ccco1 | inconclusive: -44.2%
21 | COc1ccc(S(=O)(=O)/N=C2\C=C(Nc3ccc(O)cc3)C(=O)c3ccccc32)cc1 | inconclusive: -36.8%
22 | COc1ccc(N2CCN(c3cc(C(=O)NC4CCCCC4)ncn3)CC2)cc1OC | inactive: -7.61%
23 | O=c1cc(O)n(C2CCCCCC2)c(=O)[nH]1 | active: -51.3%
24 | O=S(=O)(/N=S1/CC=CCN1S(=O)(=O)c1ccccc1)c1ccccc1 (stereo not given) | inconclusive: -30.9%
25 | O=C1NC(=Nc2ccccc2)S/C1=C\C=C\c1ccco1 | inconclusive: -48%
26 | O=[N+]([O-])c1ccc(Cl)c(S(=O)(=O)Nc2cccc(S(=O)(=O)NC3=NCCC3)c2)c1 | inactive: -10.8%
27 | Cc1ccc(/C=C/C(=O)Nc2ccc(Oc3ccccc3)cc2)o1 | inactive: -0.93%
28 | C/C(=N/OC(=O)c1c(F)cccc1F)c1nccs1 | inconclusive: -30.7%

Row | SMILES | activity change, negative = inhibition
29 | CCOC(=O)c1ccc(NC(=O)CC2Nc3cccc4cccc(c34)NC2=O)cc1 (stereo not given) | inconclusive: -34.9%
30 | CCC1(CC)NC(=O)N(CC(=O)Nc2sc3c(c2C(N)=O)CCC3)C1=O | inconclusive: -34.9%
31 | COc1cc2c(c(OC)c1OC)-c1ccc(OC)c(=O)cc1C(NC(=O)c1ccccc1)CC2 (stereo not given) | inactive: -1.01%
32 | CC1=NN(c2ccc(C)c(C)c2)C(=O)/C1=C\C=C\c1ccc([N+](=O)[O-])o1 | inconclusive: -30.4%
33 | CC(C)NC(=O)c1ccc2c3n(nc2c1)-c1ccccc1CO3 | active: -62.6%
34 | COc1ccc(-n2c(SCC(=O)C(C)(C)C)nc3c(sc(=S)n3-c3ccccc3)c2=O)c(OC)c1 | inactive: 127%
35 | Cn1c(-c2ccco2)nc2cc3ccccc3cc21 | active: -59.4%
36 | CCc1ccc(NC(=O)Nc2cn(C)c(=O)c3ccccc23)cc1 | inconclusive: -35.2%
37 | CCc1ccc(S(=O)(=O)/N=C2\C=C(NS(=O)(=O)c3ccccc3)C(=O)c3ccccc32)cc1 | active: -50.1%
38 | COc1ccc2c(c1)Cc1sc(NC(=O)c3ccccc3C)nc1-2 | inconclusive: -41.6%
39 | Cc1ccc(-c2nc(-c3ccccn3)no2)cc1 | active: -75.5%
40 | O=C(NCc1ccccc1)C1CCCN1S(=O)(=O)c1ccc(F)cc1 (stereo not given) | inactive: 1.31%
41 | Cc1cc(-c2ccc(C(C)C)c(S(=O)(=O)N3CCOc4ccccc43)c2)on1 | inactive: 4.66%
42 | CC1Cc2ccccc2N1CC(=O)NC(=O)NCc1ccco1 (stereo not given) | inconclusive: -34.1%
43 | CC(C)Cn1cc(NC(=O)NCc2ccc(Cl)cc2)c2ccccc2c1=O | inconclusive: -33.2%
44 | O=C(O)c1cccc(N2C(=O)c3cc([N+](=O)[O-])cc4cc([N+](=O)[O-])cc(c34)C2=O)c1 | active: -67.2%
45 | O=c1c2cc([N+](=O)[O-])cc([N+](=O)[O-])c2[nH]n1-c1ccccc1 | inconclusive: -45.7%
46 | Cc1ccccc1S(=O)(=O)Cc1ccc(C(=O)N2CCN(c3cccc(Cl)c3)CC2)o1 | inactive: -2.4%
47 | CN1CCc2cc(O)c(O)cc2C(c2ccccc2)C1 (stereo not given) | inactive: 3.56% and inactive: -4.17%
48 | COc1ccc(Cn2nnnc2CN2CCC(O)(c3ccccc3F)CC2)cc1 | inconclusive: -43%
49 | O=C(O)c1cc(O)c2c(c1)[C@H]([C@H]1c3cc(C(=O)O)cc(O)c3C(=O)c3c(O[C@@H]4O[C@H](CO)[C@@H](O)[C@H](O)[C@H]4O)cccc31)c1cccc(OC3O[C@H](CO)[C@@H](O)[C@H](O)[C@H]3O)c1C2=O (stereo not given in full) | active: -64.2%
50 | Cc1cccc(NC(=O)c2ccc(-c3ccccc3)s2)c1 | inconclusive: -36.5%
51 | COc1ccccc1-c1nc(-c2ccccn2)no1 | active: -63.9%
52 | O=C(Nc1ccc(N2CCOCC2)c2nonc12)C1CCCC1 | inconclusive: -44.2%
53 | Oc1c(C=Nc2cccc3nsnc23)ccc2ccccc12 | inconclusive: -31.8%
54 | COc1ccc(NC(=O)Cn2ncc(Cl)c(Cl)c2=O)cc1S(=O)(=O)N1CCOCC1 | inconclusive: -35.1%
55 | Cc1nc(N)sc1C(=O)Nc1ccccc1 | inconclusive: -34.7%
